According to PubChem BioAssay AID588855 (National Center for Advancing Translational Sciences (NCATS), 2011):
About 5,000 (1.2%) of roughly 410,000 compounds were called active. Inconclusive means that the source gave no clear call. Such entries were picked first, then a sample of the others. Calls come from the whole dose curve; as a rule, active = well fitted inhibition curve with a large enough effect; inconclusive = small, poorly fitted or top-dose-only effect; inactive = no such curve, though single readings can be large or run the other way. Potencies beside an inconclusive call are fits to weak or partial responses and may not hold up.

Experiment: qHTS for Inhibitors of TGF-b; note: nearly all actives have a fitted effect of over 65% in size
Conditions: HepG2 CAGA-GFP TGF-b/SMAD3 reporter, GFP fluorescence, 18 h, TGF-beta stimulated, 500 pg/mL final; series mostly up to 46.1 µM; activity, negative = inhibition: at the top concentration
How it was run: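 Inhibition was scored as loss of TGF-beta-induced (500 pg/mL final, 18 hours, 37 degrees C) GFP in HEPG2 cells carrying a CAGA-GFP reporter, in DMEM with 1% FBS. Well GFP was summed per cell; Activity was normalised to unstimulated and stimulated DMSO wells, then concentration-response fitting.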
% is set by controls: 0 for no effect and ±100 for the full control effect; potency is the fitted concentration of half-maximal effect; tags give direction and shape of the fitted curve.

Compound | activity, negative = inhibition | Potency
Cc1[nH][nH]c(=O)c1C(c1ccc(-c2ccccc2C(=O)O)o1)c1c(C)[nH][nH]c1=O | inactive: 15.5% | 
C(=N\Nc1ccc2ccccc2n1)/c1ccc2c(c1)OCCO2 |  | active: 15.8 µM
O=C(NN1C(=O)c2cc(Br)ccc2NC1c1ccccc1Cl)c1ccncc1 (stereo not drawn) | inactive: -18.7% | 
Cc1ccccc1NC(=O)c1ccc(NS(=O)(=O)c2cc(C(C)(C)C)cc(C)c2C)cc1 |  | inconclusive: 20 µM [inhibitor, single point]
Cc1ccc(Cn2c(C3CCCN3c3nc(C)cs3)nc3cc(C(F)(F)F)ccc32)cc1 (stereo not drawn) |  | inconclusive: 7.08 µM [inhibitor, partial curve, poor fit]
O=C(COc1cccc(Oc2ccccc2)c1)Nc1ccc(SC(F)F)cc1 |  | inconclusive: 20 µM [inhibitor, single point]
O=C(Cc1ccc(-c2ccccc2)cc1)NCc1cccnc1 | inactive: -12.6% | 
COC(=O)CSc1nc(N2CCCCC2)c2c(c1C#N)CCCC2 |  | inconclusive: 25.1 µM [inhibitor, single point]
N#Cc1cn(Cc2ccccc2)c2ccccc12 | inactive: 5.42% | 
COc1ccc(NC(=O)Nc2sc(=S)n(C)c2C)cc1 |  | inconclusive: 35.5 µM [inhibitor, single point]
NC(=O)c1cc(S(=O)(=O)N2CCOCC2)cs1 | inactive: 3.33% | 
CC(C)NC(=O)N(C)C[C@H]1Oc2c(NC(=O)Cc3ccccc3)cccc2C(=O)N([C@H](C)CO)C[C@@H]1C | inactive: 16.7% | 
CCN1C(=O)[C@@H]2[C@@H]3CN(S(=O)(=O)c4ccc(C)cc4)[C@@H](c4ccccc4)[C@@H]3C(=O)C[C@@H]2C1=O | inactive: -7.84% | 
Cc1cc(C)c(NC(=O)CSc2n[nH]c(-c3ccccc3Cl)n2)c(C)c1 | inactive: 10.2% | 
CNC(=O)NC(=O)C(NC1CCCc2ccccc21)c1ccccc1 (stereo not drawn) | inactive: 8.96% | 
CCC1CCCCN1S(=O)(=O)c1ccc(C(=O)N(CCCN(C)C)c2nc3cc4c(cc3s2)OCO4)cc1 (stereo not drawn) |  | inconclusive: 22.4 µM [inhibitor, single point]
COC1(OC)C(/C=C/c2ccc(C)cc2)C(C#N)(C#N)C1(OC)OC (stereo not drawn) |  | inconclusive: 14.1 µM [inhibitor, single point]
CN(C(=O)c1ccccc1)c1ccc(OCC(=O)NC2CCS(=O)(=O)C2)cc1 (stereo not drawn) |  | inconclusive: 3.16 µM [inhibitor, single point]
O=C1/C(=C\c2cccc([N+](=O)[O-])c2O)SC(=S)N1Cc1ccccc1 |  | active: 10 µM
Cc1cc(Br)c(S(=O)(=O)NCCN2CCOCC2)cc1C |  | inconclusive: 0.708 µM [inhibitor, partial curve, poor fit]
O=C(N/N=C\c1ccco1)Nc1cccc(Cl)c1 | inactive: -15.9% | 
Cc1[nH]nc(-c2ccc(OCc3cnn(-c4ccccc4)c3)cc2O)c1Oc1ccc(Cl)cc1 |  | inconclusive: 14.1 µM [inhibitor, single point]
O=C1/C(=C/c2cccs2)SC(=S)N1C1CCS(=O)(=O)C1 (stereo not drawn) |  | active: 15.8 µM

Compound | activity, negative = inhibition | Potency
C=CCNC(=S)/C(=C(\[O-])c1ccc(Cl)cc1)[n+]1ccccc1 |  | inconclusive: 2.82 µM [inhibitor, full curve, poor fit]
COc1ccccc1[C@@H]1C(c2ccccc2)=NN(c2ccc(Br)cc2)[C@H]1C(=O)N1CCOC1=O |  | inconclusive: 11.2 µM [inhibitor, partial curve]
CC/C(=N\NC(=S)NC(C)C)c1ccc(OC(F)F)cc1 |  | inconclusive: 35.5 µM [inhibitor, single point]
O=C(COc1ccc(Cl)cc1)NCC(c1ccco1)S(=O)(=O)c1ccccc1 (stereo not drawn) |  | inconclusive: 14.1 µM [inhibitor, single point]
COc1ccccc1NC(=O)c1sc2nc3c(c(C(F)(F)F)c2c1N)CN(C(C)=O)CC3 | inactive: 110% | 
CN(C)CCN(C(=O)CCc1ccccc1)c1nc2c(F)cc(F)cc2s1 | inactive: -9.43% | 
Cc1ccn2c(Nc3ccccc3C)c(-c3ccc(N4CCOCC4)cc3)nc2c1 |  | inconclusive: 35.5 µM [inhibitor, single point]
CCOC(=O)c1cccc(C2=CC(=O)C[C@H](c3ccc(OC)c(OC)c3)C2)c1 | inactive: 4.05% | 
Cc1cccc(NC(=S)/N=C(\N)Nc2nc(C)c3ccc(C)cc3n2)c1 |  | inconclusive: 35.5 µM [inhibitor, single point]
Cc1cc(C)cc(NC(=S)NCc2ccc(F)cc2)c1 |  | inconclusive: 11.2 µM [inhibitor, partial curve]
O=C(Nc1oc2ccccc2c(=O)c1-c1ccc(Br)cc1)c1ccco1 |  | inconclusive: 2.51 µM [inhibitor, partial curve, poor fit]
CCC(Oc1cc(Cl)ccc1Cl)C(=O)N1CCCN(C)CC1 (stereo not drawn) | inactive: 1.23% | 
NS(=O)(=O)c1ccc(Nc2c([N+](=O)[O-])cncc2[N+](=O)[O-])cc1 |  | inconclusive: 12.6 µM [inhibitor, single point]
CCCCC[n+]1ccn(C2=C([O-])c3ccccc3C(=O)/C2=N\S(=O)(=O)c2ccccc2)c1 |  | inconclusive: 3.16 µM [inhibitor, full curve, poor fit]
COc1ccccc1NC(=O)Cn1cnc2c(cnn2-c2ccccc2)c1=O |  | inconclusive: 6.31 µM [inhibitor, single point]
COc1ccc(OC)c(C(C)NC(=O)Nc2cccc(C(C)=O)c2)c1 (stereo not drawn) |  | inconclusive: 0.447 µM [inhibitor, full curve, poor fit]
CCCCCCCN1C(Nc2ccccc2)=NC[C@@H]1CC(C)C |  | inconclusive: 25.1 µM [inhibitor, single point]
Cc1ccc(C2=CC(c3ccccc3C)n3c(nc4ccccc43)N2)cc1 (stereo not drawn) |  | inconclusive: 35.5 µM [inhibitor, single point]
O=C(O)c1cccc(CN2C(=O)SC(Nc3ccccc3)C2=O)c1 (stereo not drawn) |  | inconclusive: 35.5 µM [inhibitor, single point]
O=C(O)c1ccc(N=Cc2c(O)ccc3oc4c(c23)CCCC4)cc1 |  | inconclusive: 35.5 µM [inhibitor, single point]
CCOC(=O)C1CCN(Cc2cc(C(C)C)c(O)c(C(C)C)c2)CC1 |  | inconclusive: 15.8 µM [inhibitor, single point]
Cc1ccc(C#N)c(SCc2cc3c(cc2Cl)OCO3)n1 |  | inconclusive: 35.5 µM [inhibitor, single point]
Cc1[nH][nH]c(=O)c1C(c1c(C)[nH][nH]c1=O)c1cn(Cc2ccc(Cl)c(Cl)c2)c2ccccc12 |  | active: 12.6 µM

Compound | activity, negative = inhibition | Potency
Cc1cccc(NC(=O)C2CCN(c3nc(C)cc(C)n3)CC2)c1 | inactive: -12.2% | 
CCc1cc(C(=O)NNC(=S)Nc2cc(C)ccc2C)cs1 | inactive: -11.9% | 
CCC(Sc1nc2cc(OC)c(OC)cc2c(=O)n1Cc1ccco1)C(=O)NCCOC (stereo not drawn) | inactive: 0% | 
CS(=O)(=O)c1ccc2nc(NC(=O)CCNC(=O)c3ccc([N+](=O)[O-])cc3)sc2c1 |  | inconclusive: 12.6 µM [inhibitor, partial curve]
Cc1ccc2oc(=O)c(S(=O)(=O)c3ccc(F)cc3)cc2c1 |  | inconclusive: 3.16 µM [inhibitor, full curve]
CCOc1cc(NC(=O)C2CCCCC2)c(OCC)cc1NC(=O)c1ccco1 |  | inconclusive: 35.5 µM [inhibitor, single point]
CC1CCCC(NC(=O)COC(=O)c2cccc(NS(=O)(=O)/C=C/c3ccccc3)c2)C1C (stereo not drawn) |  | inconclusive: 7.94 µM [inhibitor, partial curve, poor fit]
CCN(C(=O)CSc1nc2ccccc2n1Cc1ccc(C(=O)OC)cc1)c1ccccc1 |  | inconclusive: 35.5 µM [inhibitor, single point]
CC(=O)N1CCc2cc(S(=O)(=O)CCC(=O)NCCc3ccc(C)cc3)ccc21 |  | inconclusive: 15.8 µM [inhibitor, partial curve, poor fit]
CN1CCN(Cc2c(O)ccc3cc(-c4ccccn4)c(=O)oc23)CC1 | inactive: 2.37% | 
O=C(Nc1ccc(NC(=S)NC(=O)c2cccs2)cc1)c1ccccc1 | inactive: -7.13% | 
Cc1ccc(Oc2cc(NC(=O)CCCn3nc(C)c([N+](=O)[O-])c3C)cc([N+](=O)[O-])c2)cc1 |  | inconclusive: 25.1 µM [inhibitor, single point]
O=C1CCC[C@@H]2C[C@@]3(C[C@@H]4CCN1[C@H]24)Nc1ccccc1NC3=NCc1ccccc1 |  | inconclusive: 4.47 µM [inhibitor, full curve]
O=C(Cn1cc(SCc2ccc(Br)cc2)c2ccccc21)N1CCCCC1 |  | inconclusive: 3.98 µM [inhibitor, partial curve]
CN1CCC(C)(C(=O)Nc2ccc3c(c2)OCCO3)C1 (stereo not drawn) | inactive: 1.4% | 
C(=Nc1ccc(/C=C/c2ccnc3ccccc23)cc1)Nc1ccc(/C=C/c2ccnc3ccccc23)cc1 |  | inconclusive: 17.8 µM [inhibitor, single point]
CC(Sc1nnnn1C1CCCC1)C(=O)Nc1cccc(S(=O)(=O)N2CCOCC2)c1 (stereo not drawn) |  | inconclusive: 6.31 µM [inhibitor, single point]
COC(=O)C[C@H]1c2cc(F)ccc2S(=O)(=O)N1c1ccc(N(C)C)cc1 |  | inactive
C[C@H]1CN([C@@H](C)CO)C(=O)CCCn2nncc2CO[C@@H]1CN(C)C(=O)Nc1ccnc(N2CCOCC2)c1 |  | inconclusive: 2.51 µM [inhibitor, partial curve, poor fit]
CCCC(=O)N1CCc2cc(OC)c(OC)cc2C1COc1ccc2c(C)cc(=O)oc2c1 (stereo not drawn) | inactive: 0.991% | 
CCCCn1c(SCC(=O)c2ccc3c(c2)OCCO3)nnc1-c1ccoc1C | inactive: 12.9% | 
Cc1cccc(C(C)C)c1NC(=O)C1CCN(S(=O)(=O)c2ccccc2)CC1 |  | inconclusive: 15.8 µM [inhibitor, single point]
